Data reported in PubChem BioAssay (NCATS).
This list was built around the results that the source calls inconclusive (neither active nor inactive); the mix of calls is not that of the screen. For part of these data: Where the call is inconclusive, the potency comes from a doubtful curve fit. The source holds several records for some structures; these can differ, active in one and inactive in another. Activity calls are given as the source filed them. Unless noted, calls come from the whole dose curve; as a rule, active = well fitted curve in the direction sought with a large enough effect; inconclusive = small, poorly fitted or top-dose-only effect, or another doubt; inactive = no such curve, though single readings can be large; an effect the other way counts as inactive or inconclusive.

Columns and labels:
HeLa = experiment: Primary qHTS to identify gynecologic anti-cancer compounds using libraries of approved drugs and bioactive compounds (AID 1345084); conditions: Gynecologic cancer cell panel viability, ATPlite luminescence, 48 h; activity change, negative = cytotoxicity: at 57.5 µM (top of the series); note: nearly all actives have a fitted effect of over 55% in size
In short: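 Measured: luminescence after ATPlite addition (15 min, RT). Exposure: 48 h, 37 C, 5% CO2.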

[1] = qHTS of pediatric cancer cell lines to identify multiple opportunities for drug repurposing: Primary screen for BT-37 cells (AID 1347094)
In short: (§1)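 Viability was measured as metabolically active cells after 48 hours of treatment, read by CellTiter-Glo luminescence. Compounds were tested at multiple final concentrations, giving concentration-response curves.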

[2] = qHTS of pediatric cancer cell lines to identify multiple opportunities for drug repurposing: Primary screen for NB-EBc1 cells (AID 1347095)
In short: as §1

[3] = qHTS of pediatric cancer cell lines to identify multiple opportunities for drug repurposing: Primary screen for NB1643 cells (AID 1347099); note: nearly all actives have a fitted effect of over 50% in size
In short: as §1

[4] = qHTS of pediatric cancer cell lines to identify multiple opportunities for drug repurposing: Primary screen for BT-12 cells (AID 1347101); note: nearly all actives have a fitted effect of over 25% in size
In short: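 Cells (500-1,000/well) rested 5 h, then received compounds for 48 h; metabolically active cells were measured by CellTiter-Glo luminescence. Final concentrations spanned up to 46 µM (MIPE, 11-point) or 0.59 nM-46 µM (NPC, 8-point) in primary screens, 11-point in follow-ups.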

[5] = qHTS of pediatric cancer cell lines to identify multiple opportunities for drug repurposing: Primary screen for Rh41 cells (AID 1347108); note: nearly all actives have a fitted effect of over 70% in size;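 for activity change, negative = cytotoxic: luminescence drop marks cytotoxic hits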
In short: as §1

[6] = biological target: Calcium and integrin-binding protein 1 (Homo sapiens) (UniProt Q99828); experiment: Primary qHTS for Identification of Calcium Integrin Binding Protein 1 (CIB1) Competitor (AID 1508620)
UniProt Q99828, sequence (Q99828 whole entry, looked up): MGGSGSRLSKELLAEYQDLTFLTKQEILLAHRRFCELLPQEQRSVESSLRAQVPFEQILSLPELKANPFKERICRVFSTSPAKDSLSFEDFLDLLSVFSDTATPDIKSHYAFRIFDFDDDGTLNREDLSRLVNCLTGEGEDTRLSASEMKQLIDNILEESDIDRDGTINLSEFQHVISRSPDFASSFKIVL
In short: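 Fluorescence polarization competition: CIB1-GST (1 uM final) preincubated with compound 15 min at room temperature, then FITC-labeled alphaIIb peptide (100 nM final) added for another 15 min. Polarization read at Ex 480/Em 540.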

[7] = Primary qHTS for small molecule stabilizers of the endoplasmic reticulum resident proteome: Secreted ER Calcium Modulated Protein (SERCaMP) assay (AID 1508630); conditions: SH-SY5Y GLuc-SERCaMP (Gaussia luciferase released on ER calcium loss) secretion, thapsigargin, luminescence; series mostly up to 38.4 µM
In short: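 The SH-SY5Y reporter protocol was run at 3 concentrations up to 38.3 uM (primary) or 11 concentrations (follow-up): 16 h compound, 100 nM thapsigargin for 4 h, then extracellular luciferase luminescence.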

[8] = A High-Content qHTS Against Drug Library for the Identification of Small Molecules that Inhibit DYT1 Early Onset Primary Dystonia-Associated Cell Pathology (AID 1645839; calls by dose curve)
In short: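 Induced EGFP-delE TorsinA cells are imaged after 48 h of compound treatment. Punctate fusion-protein distribution gives the %pathology value, while nuclei counts flag toxicity. Wild-type EGFP-hTOR1A cells define the normal pattern.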

[9] = biological target: Cytochrome P450 2D6 (Homo sapiens) (UniProt P10635); experiment: Cytochrome P450 family 2 subfamily D member 6 (CYP2D6) small molecule antagonists: luciferase biochemical (cell-free) qHTS assay (AID 1645840; active = well fitted curve in the direction sought with a large enough effect in the repeat runs; inconclusive = weak or mixed curves; inactive = no such curve, though single readings can be large; an effect the other way counts as inactive or inconclusive; note: nearly all actives have a fitted effect of over 55% in size)
UniProt P10635, sequence (P10635 whole entry, looked up): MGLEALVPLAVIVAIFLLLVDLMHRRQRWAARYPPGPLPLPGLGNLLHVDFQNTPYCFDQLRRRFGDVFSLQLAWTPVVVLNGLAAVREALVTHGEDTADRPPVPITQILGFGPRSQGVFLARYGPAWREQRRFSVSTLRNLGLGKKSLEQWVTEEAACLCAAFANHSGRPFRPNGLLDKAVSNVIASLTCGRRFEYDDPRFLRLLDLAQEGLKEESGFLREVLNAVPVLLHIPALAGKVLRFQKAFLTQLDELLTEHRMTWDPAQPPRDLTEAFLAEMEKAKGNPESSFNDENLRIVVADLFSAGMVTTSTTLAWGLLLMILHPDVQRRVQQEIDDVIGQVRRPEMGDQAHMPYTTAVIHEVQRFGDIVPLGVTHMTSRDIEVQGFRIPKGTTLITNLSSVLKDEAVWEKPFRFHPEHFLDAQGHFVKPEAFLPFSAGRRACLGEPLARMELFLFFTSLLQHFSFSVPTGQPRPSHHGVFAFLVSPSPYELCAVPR
In short: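 P450-Glo CYP2D6 system: proluciferin substrate converted by enzyme to luciferin, read by luminescence proportional to activity. Enzyme-substrate mix with compound 10 min at room temperature, then NADPH regeneration 1 h before detection reagent.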

[10] = biological target: Glutathione peroxidase 1 (Homo sapiens) (UniProt P07203); experiment: Primary qHTS Assay for Inhibitors of Recombinant Selenoprotein Glutathione Peroxidase 1 (GPX1) (AID 1845191); conditions: activity, negative = inhibition: at 48.8 µM (top of the series); note: nearly all actives have a fitted effect of over 65% in size
UniProt P07203, sequence (P07203 whole entry, looked up): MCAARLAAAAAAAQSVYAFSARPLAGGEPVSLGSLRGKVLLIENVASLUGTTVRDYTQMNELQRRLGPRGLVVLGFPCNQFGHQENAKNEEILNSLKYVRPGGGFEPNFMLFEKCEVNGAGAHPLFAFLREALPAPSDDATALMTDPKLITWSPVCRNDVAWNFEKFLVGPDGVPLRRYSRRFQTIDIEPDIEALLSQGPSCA
In short: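 GPX1 10 nM, GR 100 nM, GSH 1 mM, NADPH 0.5 mM, CHP 0.5 mM (final). 30-min cpd preincubation, RT. Ex340/Em450 read t=0, t=15 min.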

[11] = biological target: Phospholipid hydroperoxide glutathione peroxidase GPX4 (Homo sapiens) (UniProt P36969); experiment: Primary qHTS Assay for Inhibitors of Recombinant Selenoprotein Glutathione Peroxidase 4 (GPX4) (AID 1845192); note: nearly all actives have a fitted effect of over 65% in size
UniProt P36969, sequence (P36969 whole entry, looked up): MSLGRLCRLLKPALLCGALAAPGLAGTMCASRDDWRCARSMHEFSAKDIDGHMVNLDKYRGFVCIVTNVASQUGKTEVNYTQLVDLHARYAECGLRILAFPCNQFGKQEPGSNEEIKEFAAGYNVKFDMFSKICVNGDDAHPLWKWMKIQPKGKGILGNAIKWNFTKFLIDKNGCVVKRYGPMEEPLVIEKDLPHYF
In short: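 qHTS, GR-coupled: GPX4 200 nM + cpd 30 min RT → GSH 1 mM, NADPH 0.5 mM, GR 100 nM → CHP 0.5 mM start; fluor 340/450 at t0 and t15 min; no-enzyme wells as control.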

[12] = Primary redox qHTS assay for identification of artifact compounds. (AID 1845223); conditions: Amplex Red/HRP redox cycling with DTT, fluorescence; series mostly up to 53.8 µM
In short: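 Redox-cycling detection via DTT (250 uM final) oxidation coupled to Amplex Red (25 uM)/HRP (250 mU/mL) in HBSS. 15 min preincubation plus 30 min after DTT, room temperature. Ex/Em 525/598 nm; 4-parameter Hill fit against DMSO and 10 uM DA3003.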

[13] = qHTS of pediatric cancer cell lines to identify multiple opportunities for drug repurposing: Primary screen for RD cells (AID 1347104); conditions: RD rhabdomyosarcoma viability, CellTiter-Glo luminescence, 48 h; activity change, negative = cytotoxic: at 46 µM (top of the series); note: nearly all actives have a fitted effect of over 55% in size
In short: as §1

[14] = biological target: Cytochrome P450 2C9 (Homo sapiens) (UniProt P11712); experiment: Cytochrome P450 family 2 subfamily C member 9 (CYP2C9) small molecule antagonists: luciferase biochemical (cell-free) qHTS assay (AID 1645842; active = well fitted curve in the direction sought with a large enough effect in the repeat runs; inconclusive = weak or mixed curves; inactive = no such curve, though single readings can be large; an effect the other way counts as inactive or inconclusive; note: nearly all actives have a fitted effect of over 55% in size)
UniProt P11712, sequence (P11712 whole entry, looked up): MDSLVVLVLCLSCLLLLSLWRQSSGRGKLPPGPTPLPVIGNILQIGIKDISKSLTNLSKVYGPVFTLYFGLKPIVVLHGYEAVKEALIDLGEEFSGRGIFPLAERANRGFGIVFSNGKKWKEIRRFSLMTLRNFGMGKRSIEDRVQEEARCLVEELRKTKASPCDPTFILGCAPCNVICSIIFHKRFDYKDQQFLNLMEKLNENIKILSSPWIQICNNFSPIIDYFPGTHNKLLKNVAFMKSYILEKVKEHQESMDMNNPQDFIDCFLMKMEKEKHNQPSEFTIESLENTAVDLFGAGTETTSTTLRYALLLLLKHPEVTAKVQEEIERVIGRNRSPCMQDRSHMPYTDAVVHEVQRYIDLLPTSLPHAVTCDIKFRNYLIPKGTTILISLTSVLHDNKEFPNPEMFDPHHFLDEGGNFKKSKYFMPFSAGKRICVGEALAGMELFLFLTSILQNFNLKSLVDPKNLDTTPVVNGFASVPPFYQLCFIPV
In short: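 P450-Glo CYP2C9 system: proluciferin substrate with enzyme in mix containing 0.4% BSA, 10 min at room temperature, then NADPH regeneration solution added and incubated 1 h at 37C. Detection reagent stopped reaction; luminescence read after 20 min as RLU.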

WaGa = experiment: qHTS assay to identify novel small-molecules to repurpose for Merkel cell carcinoma treatment (AID 1296009); conditions: MCC and control cell lines, CellTiter-Glo viability, 72 h; series mostly up to 46 µM; note: nearly all actives have a fitted effect of over 60% in size
In short: (§2)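 Viability readout: ATP luminescence (CellTiter-Glo) after 72 hr drug exposure at 37 degree celsius. Dose-response format was 8 points for NPC and 11 points for MIPE; data normalized to in-plate controls.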

UISO = experiment: as above; conditions: MCC and control cell lines, CellTiter-Glo viability, 72 h; activity change, negative = cytotoxicity: at 46 µM (top of the series)
In short: as §2
Potency is the fitted concentration of half-maximal effect; tags give direction and shape of the fitted curve.

O=C(c1cn(Cc2cncn2Cc2ccc(Br)cc2)cc1-c1cccc2ccccc12)N1CCOCC1
Potency (HeLa): inconclusive: 28.2 µM [cytotoxic, single point]

CN1CCN(CCC(=O)N2c3ccccc3Sc3ccc(C(F)(F)F)cc32)CC1
Potency [1]: inconclusive: 27.6 µM [cytotoxic, single point]
Potency [2]: inconclusive: 11.9 µM [cytotoxic, partial curve]
Potency [3]: inconclusive: 21.1 µM [cytotoxic, partial curve, poor fit]
Potency [4]: inconclusive: 30.9 µM [cytotoxic, single point]
Potency [5]: inconclusive: 15 µM [cytotoxic, single point]
Potency [6]: inconclusive: 56.2 µM [inhibitor, partial curve, poor fit]
Potency [7]: inconclusive: 10 µM [inhibitor, single point]
Potency [8]: active: 3.16 µM

CC(=O)NO
Potency [1]: inactive
Potency [4]: inactive
Potency [7]: inconclusive: 31.6 µM [inhibitor, partial curve, poor fit]
Potency [8]: inactive
Potency [9]: inconclusive: 0.0347 µM [inhibitor, full curve, poor fit]

CN1c2c(nc(N)[nH]c2=O)NC[C@@H]1CNc1ccc(C(=O)N[C@@H](CCC(=O)O)C(=O)O)cc1
Potency [10]: inconclusive: 1.43 µM [inhibitor, partial curve]
Potency [11]: active: 1.24 µM
Potency (HeLa): inconclusive: 39.8 µM [cytotoxic, single point]

N#CSc1cc(SC#N)c(N)nc1N
Potency [6]: inconclusive: 14.1 µM [inhibitor, partial curve, poor fit]
Potency [12]: active: 5.05 µM

Cn1nnc(-c2ccc(-c3ccc(N4C[C@H](COP(=O)(O)O)OC4=O)cc3F)cn2)n1
Potency [11]: active: 22.7 µM
Potency (HeLa): inconclusive: 31.6 µM [cytotoxic, single point]

O=C(N/N=C/c1ccc([N+](=O)[O-])o1)c1ccc(O)cc1
Potency [1]: inconclusive: 34.7 µM [cytotoxic, single point]
Potency [2]: inconclusive: 33.5 µM [cytotoxic, single point]
Potency [3]: inconclusive: 26.6 µM [cytotoxic, single point]
Potency [4]: active: 13.8 µM
Potency [13]: inconclusive: 29.9 µM [cytotoxic, single point]
Potency [5]: inconclusive: 33.5 µM [cytotoxic, single point]
Potency [6]: inconclusive: 44.7 µM [inhibitor, partial curve, poor fit]
Potency [8]: inconclusive: 7.94 µM [inhibitor, partial curve]
Potency [14]: inconclusive: 30.9 µM [inhibitor, partial curve, poor fit]
Potency (WaGa): active: 10.6 µM

C[C@@H]1O[C@@H](O[C@H]2[C@H](O)[C@@H](O)[C@H](O[C@H]3[C@H](O[C@H]4CC[C@@]5(C)C(=CC[C@@H]6C5CC[C@]5(C)[C@@H]7[C@H](C[C@@H]65)O[C@]5(CC[C@@](C)(CO[C@@H]6O[C@H](CO)[C@@H](O)[C@H](O)[C@H]6O)O5)[C@H]7C)C4)O[C@H](CO)[C@@H](O)[C@@H]3O)O[C@@H]2CO)[C@H](O)[C@H](O)[C@H]1O (stereo partly specified)
Potency [12]: inconclusive: 1.79 µM [activator, partial curve, poor fit]

[O-][n+]1cccc(/C(Cl)=N/OC[C@@H](O)CN2CCCCC2)c1
Potency [2]: inactive
Potency [4]: inactive
Potency [5]: inactive
Potency [7]: inactive
Potency [9]: inconclusive: 27.5 µM [inhibitor, single point]
Potency [14]: inactive
Potency (UISO): inactive
Potency (WaGa): inactive

C/C=C1\[C@H](OC2OC(COC3OC(CO)C(O)C(O)C3O)C(O)C(O)C2O)OC=C(C(=O)OC)[C@H]1CC(=O)OCCc1ccc(O)cc1 (stereo partly specified)
Potency [6]: inactive
Potency [12]: inconclusive: 12.6 µM [activator, partial curve, poor fit]

CCOC(=O)C1=C(C)NC(C)=C(C(=O)OC)C1c1cccc(Cl)c1Cl (stereo unspecified)
Potency [3]: inactive
Potency [4]: inconclusive: 38.9 µM [cytotoxic, single point]
Potency [8]: inconclusive: 20 µM [inhibitor, partial curve, poor fit]
Potency (HeLa): inconclusive: 39.8 µM [cytotoxic, single point]

CC(=O)N1CCN(C(=O)Cc2ccc(Nc3ncc(F)c(Nc4ccc(C(=O)Nc5ccccc5Cl)cc4)n3)cc2)CC1
Potency [12]: inconclusive: 4.23 µM [activator, partial curve, poor fit]

NS(=O)(=O)c1cc(C(=O)O)cc(N2CCCC2)c1Oc1ccccc1
Potency [4]: inactive
Potency [14]: inactive

CCCCC(CC)COC(=O)c1ccccc1C(=O)O (stereo unspecified)
Potency [8]: inconclusive: 44.7 µM [inhibitor, single point]
Potency [9]: inconclusive: 32.3 µM [inhibitor, partial curve]
